The subject of data set [1] is human keratinocytes (HaCaT). Kind of data set: HaCaT cell viability, CCK-8 assay. Format: cell-based. The note with it: for Cytotoxic EC90: 24 h. How it is done: HaCaT (IM-H225) cells from Xiamen Immocell Biotechnology Co., Ltd were cultured in DMEM high glucose medium (4.5 g/L, Gibco, USA), supplemented with 10% fetal bovine serum (Gibco, USA), 100 U/mL of penicillin and 100 μg/mL of streptomycin in a 5% CO2 fully humidified environment at 37 °C.
Cell Counting Kit-8 (CCK-8; Biosharp, China) was used to assess the rate of cellular proliferation and quantify cell viability. In brief, HaCaT cells were seeded in 96-well plates with 100 μL of medium at a density of 1 × 10^4 cells per well. After incubation of cells overnight, peptides were added into the medium for another 24 h incubation. Then, 10 μL of CCK8 solution was applied to each well and incubated for 1 h at 37 °C. Finally, the absorbance values at 450 nm were determined using a microplate reader (SYNERGY-H1, BioTek, USA). Two columns of the plate were kept for negative control (medium only) and growth control (medium with HaCaT cell). All experiments were conducted in triplicate.

Data set [2] deals with rabbit red blood cells (rRBCs). Put plainly: Hemolytic activity assay. Format: cell-based. The note with it: for Hemolysis EC90: 2 h. The method, then:
The hemolytic activity of peptides was assayed on rabbit red blood cells (rRBCs)[43]. Briefly, 2% rRBCs (150 μL) were incubated in the presence of various peptide concentrations (50 μL) at 37 °C for 2 h. After centrifugation, the supernatants were collected for measuring absorbance at 545 nm. PBS and 0.01% Triton X-100 were used as the negative (no hemolysis) and positive (100% hemolysis) control, respectively. Triplicate tests were performed.

Data set [3] relates to S. aureus (ATCC 25913). In kind it is cell-based. The note with it: ATCC 25913, 24 h. How it is done: (§1) Logarithmic phase growth bacteria were used for antimicrobial testing.
(§2) All experiments were conducted in triplicate.

Data set [4] concerns E. coli (ATCC 25922). In kind it is cell-based. The note with it: ATCC 25922, 24 h. The method, then:
as §1, §2

Data set [5] concerns C. albicans (ATCC 14053). In kind it is cell-based. As to conditions: ATCC 14053, 48 h. How it is done: Strains of C. albicans (ATCC 14053) were grown in Nodule Bacteria Medium YM broth (Beijing Solarbio Science and Technology, LA6970) at 28 °C at 180 rpm under aerobic conditions.
as §1
(§3) To determine the MIC values, the broth microdilution method was used. […] Briefly, peptide samples were prepared as a stock solution in water and then diluted. 180 μL of the bacterial suspension (10^7 CFU/mL) and 20 μL of the tested sample were added together into 96-Well Deep Well Plates and incubated 24 h for E. coli and S. aureus or 48 h for C. acnes and C. albicans. For each test, two columns of the plate were kept for sterility control (broth only) and growth control (broth with bacterial inoculums, no antibiotics). The optical density of cultures was measured at 630 nm by a microplate reader (SYNERGY-H1, BioTek, USA) to estimate bacterial growth. All experiments were conducted in triplicate. We used ciprofloxacin (CPFX) as the antibiotic control for antimicrobial testing.

Data set [6] concerns C. acnes (BNCC 336649). As to conditions: BNCC 336649, 48 h. The method, then: The strain of C. acnes (BNCC 336649) was cultured in Wilkins-Chalgren Anaerobe Broth (QingDao RiShui Bio-technologies, 11071) at 37 °C under an anaerobic atmosphere performed by a Labiophy HL-B automatic hypoxic workstation (Dalian, Liaoning Province, Labiophy HL-B), inflated with a gas mix of 15% carbon dioxide, 83% nitrogen, and 2% hydrogen.
as §1, §3

Ends that are not written are not given here. Where only a bound is given, the exact number is not on record here.

In the case of `CC(C)C[C@H](NC(=O)[C@H](Cc1c[nH]c2ccccc12)NC(=O)[C@@H](NC(=O)[C@H](CC(C)C)NC(=O)[C@@H]1CCCN1C(=O)[C@@H](N)Cc1ccccc1)[C@@H](C)O)C(=O)N[C@@H](CCCCN)C(=O)N[C@@H](Cc1c[nH]c2ccccc12)C(=O)N[C@@H](Cc1c[nH]c2ccccc12)C(=O)N[C@@H](CCCCN)C(=O)N[C@@H](Cc1c[nH]c2ccccc12)C(=O)N[C@@H](CCCCN)C(=O)N[C@@H](CCCCN)C(N)=O` [FK13, reference compound], in data set [1] (ratio of EC90 (HaCaT) to MIC of C. acnes), the “Cytotoxic Index” value is given as 20. In addition, the “Hemolysis Index” value in data set [2] (ratio of EC90 (rabbit red blood cells) to MIC of C. acnes) worked out at 16.

For AKRIVKLIKNFFRKL-NH2 [AMP-25], the “Cytotoxic EC90” value in data set [1] is 80 µg/mL. For the same compound, in data set [3], the “MIC S. aureus” value is on record as above 100 µg/mL. For the same compound, the “MIC E. coli” value in data set [4] stood at 50 µg/mL. The “Hemolysis EC90” value in data set [2] turned out to be 240 µg/mL. The “MIC C. albicans” value in data set [5] is on record as 25 µg/mL.

On to GIFKKITGKLFKWIK [AMP-5], for which the “Cytotoxic EC90” value in data set [1] worked out at 80 µg/mL. In addition, in data set [3], the “MIC S. aureus” value is listed as 100 µg/mL. In addition, the “MIC E. coli” value in data set [4] came out at 12.5 µg/mL. For the same compound, the “Hemolysis EC90” value in data set [2] is listed as 240 µg/mL. Also, the “MIC C. acnes” value in data set [6] was found to be 8 µg/mL. Moreover, the “MIC C. albicans” value in data set [5] is 12.5 µg/mL.

In the case of GWAKRLATRLAKAIL-NH2 [AMP-27], in data set [1], the “Cytotoxic EC90” value is recorded as above 320 µg/mL. For the same compound, in data set [3], the “MIC S. aureus” value is above 100 µg/mL. The “MIC E. coli” value in data set [4] was 100 µg/mL. Besides, the “Hemolysis EC90” value in data set [2] is given as 160 µg/mL. Besides, the “MIC C. acnes” value in data set [6] is given as 25 µg/mL. Besides, the “MIC C. albicans” value in data set [5] is on record as 50 µg/mL.

In the case of HFLGVVAKLVSKLF [AMP-38], in data set [1], the “Cytotoxic EC90” value came out at 80 µg/mL. In addition, the “MIC S. aureus” value in data set [3] came to 12.5 µg/mL. Further, the “MIC E. coli” value in data set [4] is 8 µg/mL. Besides, in data set [2], the “Hemolysis EC90” value came to 128 µg/mL. Also, the “MIC C. acnes” value in data set [6] is 8 µg/mL. Moreover, the “MIC C. albicans” value in data set [5] is on record as 50 µg/mL.

For KILGKLLKWASKIW [AMP-31], the “Cytotoxic EC90” value in data set [1] was found to be 32 µg/mL. Also, the “MIC S. aureus” value in data set [3] was 8 µg/mL. Also, the “MIC E. coli” value in data set [4] is reported as 8 µg/mL. Also, the “Hemolysis EC90” value in data set [2] is 80 µg/mL. The “MIC C. albicans” value in data set [5] is reported as 25 µg/mL.

Take KKIFKRIVKIIKRLL [AMP-29]: in data set [1], the “Cytotoxic EC90” value is listed as 32 µg/mL. Besides, the “MIC S. aureus” value in data set [3] is 8 µg/mL. Besides, the “MIC E. coli” value in data set [4] was 8 µg/mL. Besides, the “Hemolysis EC90” value in data set [2] is 64 µg/mL. Further, the “MIC C. albicans” value in data set [5] turned out to be 25 µg/mL.

In the case of KKWRKVLKLIKRLVG-NH2 [AMP-12], the “Cytotoxic EC90” value in data set [1] worked out at 32 µg/mL. Further, the “MIC S. aureus” value in data set [3] is 8 µg/mL. Further, in data set [4], the “MIC E. coli” value is 8 µg/mL. The “Hemolysis EC90” value in data set [2] was found to be 80 µg/mL. For the same compound, the “MIC C. albicans” value in data set [5] is 25 µg/mL.

On to KRIVHRLLKKLHSLF [AMP-9], for which, in data set [1], the “Cytotoxic EC90” value was 160 µg/mL. In addition, the “MIC S. aureus” value in data set [3] is above 100 µg/mL. The “MIC E. coli” value in data set [4] is listed as 25 µg/mL. The “Hemolysis EC90” value in data set [2] stood at 240 µg/mL. Further, in data set [5], the “MIC C. albicans” value was 25 µg/mL.

As to LSKWLKKLGKLLAG [AMP-33], in data set [1], the “Cytotoxic EC90” value is 80 µg/mL. Moreover, the “MIC S. aureus” value in data set [3] is on record as 50 µg/mL. Also, the “MIC E. coli” value in data set [4] was 25 µg/mL. In data set [2], the “Hemolysis EC90” value turned out to be 80 µg/mL. The “MIC C. albicans” value in data set [5] was found to be 12.5 µg/mL.

(Values after article PMC10894229, “Novel antimicrobial peptides against Cutibacterium acnes designed by deep learning” (Scientific Reports, 2024).)
